# In PubChem BioAssay AID1347165 (National Center for Advancing Translational Sciences (NCATS), 2019):
# Hit rate of the full screen: of about 220,000 compounds, about 5,700 (2.6%) were called active. This list was built around the results that the source calls inconclusive (neither active nor inactive); the mix of calls is not that of the screen. Calls come from the whole dose curve; as a rule, active = well fitted inhibition curve with a large enough effect; inconclusive = small, poorly fitted or top-dose-only effect; inactive = no such curve, though single readings can be large or run the other way. Potencies of inconclusive entries are doubtful fits and often do not repeat.
# Biological target: Lysine-specific demethylase 5B (Homo sapiens) (UniProt Q9UGL1)
# Assay: Primary screen for KDM5B Histone Demethylases FDH-coupled qHTS; note: nearly all actives have a fitted effect of over 70% in size
# Settings: FDH-coupled NADH fluorescence (FDH is formaldehyde dehydrogenase); series mostly up to 57.7 µM
# Outline: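 qHTS format, multiple compound concentrations. Buffer 50 mM HEPES pH 7.5/0.01% Tween-20; 200 nM KDM5BΔAP final; 10 min compound preincubation; substrate-mix levels 12.5 µM peptide, 25 µM α-KG, 0.25 mM NAD⁺; 30 min RT; ΔRFU.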
# Potency is the fitted concentration of half-maximal effect; tags give direction and shape of the fitted curve.
# UniProt Q9UGL1, sequence (Q9UGL1 whole entry, looked up): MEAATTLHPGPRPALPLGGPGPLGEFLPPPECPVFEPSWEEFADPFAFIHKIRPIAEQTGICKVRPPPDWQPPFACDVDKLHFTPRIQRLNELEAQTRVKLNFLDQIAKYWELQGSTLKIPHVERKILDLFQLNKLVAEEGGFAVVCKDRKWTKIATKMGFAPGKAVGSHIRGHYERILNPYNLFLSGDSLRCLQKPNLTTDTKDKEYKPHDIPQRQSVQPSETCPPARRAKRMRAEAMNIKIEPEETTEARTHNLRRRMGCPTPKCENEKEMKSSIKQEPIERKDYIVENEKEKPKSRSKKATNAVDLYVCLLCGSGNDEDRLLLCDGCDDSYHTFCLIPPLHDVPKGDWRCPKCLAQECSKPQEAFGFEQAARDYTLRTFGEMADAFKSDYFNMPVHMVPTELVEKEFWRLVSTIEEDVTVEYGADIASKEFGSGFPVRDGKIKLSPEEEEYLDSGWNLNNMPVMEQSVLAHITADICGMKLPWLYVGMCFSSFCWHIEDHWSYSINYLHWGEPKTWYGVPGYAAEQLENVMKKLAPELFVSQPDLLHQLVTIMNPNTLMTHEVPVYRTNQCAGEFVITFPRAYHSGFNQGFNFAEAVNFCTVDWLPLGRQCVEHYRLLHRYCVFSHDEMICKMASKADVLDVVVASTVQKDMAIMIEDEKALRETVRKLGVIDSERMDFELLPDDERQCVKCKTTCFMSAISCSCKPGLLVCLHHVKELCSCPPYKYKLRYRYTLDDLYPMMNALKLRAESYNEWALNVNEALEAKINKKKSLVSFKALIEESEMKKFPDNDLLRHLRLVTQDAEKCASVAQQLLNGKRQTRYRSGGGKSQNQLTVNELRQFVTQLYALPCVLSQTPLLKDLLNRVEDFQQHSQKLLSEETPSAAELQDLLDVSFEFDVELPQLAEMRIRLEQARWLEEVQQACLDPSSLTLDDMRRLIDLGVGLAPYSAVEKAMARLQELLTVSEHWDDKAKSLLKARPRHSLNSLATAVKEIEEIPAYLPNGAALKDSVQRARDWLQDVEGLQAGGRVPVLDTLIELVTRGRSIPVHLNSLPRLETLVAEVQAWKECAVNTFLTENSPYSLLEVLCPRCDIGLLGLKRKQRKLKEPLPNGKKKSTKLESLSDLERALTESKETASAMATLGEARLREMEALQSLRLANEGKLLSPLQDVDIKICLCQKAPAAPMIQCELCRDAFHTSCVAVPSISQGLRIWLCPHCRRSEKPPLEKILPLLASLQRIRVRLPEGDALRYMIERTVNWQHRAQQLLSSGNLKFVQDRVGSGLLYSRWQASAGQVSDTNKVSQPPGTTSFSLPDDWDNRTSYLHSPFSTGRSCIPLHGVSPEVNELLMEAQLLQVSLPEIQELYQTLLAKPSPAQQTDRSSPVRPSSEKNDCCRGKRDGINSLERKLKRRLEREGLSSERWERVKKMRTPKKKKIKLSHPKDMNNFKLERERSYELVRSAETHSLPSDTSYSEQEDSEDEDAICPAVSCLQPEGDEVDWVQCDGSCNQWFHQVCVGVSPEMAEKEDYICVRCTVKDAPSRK
row,SMILES,Potency
1,C=CCNC(=O)N[C@H]1C[C@H]2C(=O)Nc3ccc(-c4cccs4)cc3C(=O)N2C1,"inconclusive: 28.2 µM [inhibitor, partial curve, poor fit]"
2,CCCN1CCN(c2cc3c(cc2F)c(=O)c(S(=O)(=O)c2ccc(Cl)cc2)cn3C)CC1,"inconclusive: 2.51 µM [inhibitor, partial curve, poor fit]"
3,CN(Cc1nc2ccsc2c(=O)[nH]1)C(=O)C1NCCc2[nH]cnc21 (configuration not stated),"inconclusive: 6.31 µM [inhibitor, partial curve]"
4,COc1ccc(-c2ccnc3nc(C4CCC4)nn23)c(F)c1,active: 28.2 µM
5,Cc1cc(C)c2sc(NC(=O)c3ccc(S(=O)(=O)N4CCOCC4)cc3)nc2c1,"inconclusive: 44.7 µM [inhibitor, single point]"
6,COc1ccc(C(=O)NCC(c2ccc(N(C)C)cc2)N2CCc3ccccc32)cc1 (configuration not stated),"inconclusive: 39.8 µM [inhibitor, single point]"
7,COc1cccc(NC(=O)NC[C@H]2O[C@@H](CO)[C@@H](O)[C@H]2N(C)CCc2ccccc2)c1,"inconclusive: 14.1 µM [inhibitor, single point]"
8,COc1cccc(CN2CCc3c(cc(C(=O)NCCN4CCCCC4)n3C)C2)c1,active: 22.4 µM
9,COc1ccc(NC(=O)N2CCc3c(c4ccccc4n3C)C2)cc1,active: 25.1 µM
10,COc1ccc2c(C)c(CC(=O)N3CCOCC3)c(=O)oc2c1,"inconclusive: 3.55 µM [inhibitor, full curve, poor fit]"
11,Cc1cccc(Cn2nnc(C(=O)Nc3cc(C)ccc3C)c2N)c1,"inconclusive: 10 µM [inhibitor, partial curve, poor fit]"
12,CCN1CCCC1Cn1ccnc1-c1cc2n(n1)CCCNC2 (configuration not stated),"inconclusive: 31.6 µM [inhibitor, partial curve, poor fit]"
13,CCNC(=O)N1CCOc2ccc(CCC(=O)Nc3ccc(F)cc3F)cc2C1,inactive
14,Cc1ccc(S(=O)(=O)n2nc(-c3ccco3)nc2NCc2ccccc2Cl)cc1,"inconclusive: 15.8 µM [inhibitor, partial curve, poor fit]"
15,O=Cc1ccccc1-c1cncc(C(=O)O)c1,"inconclusive: 112 µM [inhibitor, partial curve, poor fit]"
16,CC1CCN(c2ccc(CNC(=O)c3ccc4c(c3)C(O)CCCCCN4C)cc2)CC1 (configuration not stated),"inconclusive: 25.1 µM [inhibitor, partial curve, poor fit]"
17,O=c1c2nc(-c3ccccc3)ccc2ncn1Cc1ccccn1,active: 39.8 µM
